From PubChem BioAssay AID1963576 (National Center for Advancing Translational Sciences (NCATS), 2024)
Hit rate of the full screen: of about 46,000 compounds, about 60 (0.1%) were called active. About 3% were inconclusive and are not listed. Calls come from the whole dose curve; as a rule, active = well fitted inhibition curve with a large enough effect; inconclusive = small, poorly fitted or top-dose-only effect; inactive = no such curve, though single readings can be large or run the other way. This is one part of the list.

Experiment: Primary qHTS assay for Inhibitors of ovarian cancer metastasis using an organotypic tumor microenvironment (TME) model.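 For activity change, negative = inhibition: plate controls were DMSO wells for no effect and tomatine positive control wells for full effect.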 Note: nearly all actives have a fitted effect of over 65% in size.
Details: SKOV3ip1-GFP adhesion/invasion on 3D omental model, fluorescence; series mostly up to 45.8 µM; activity change, negative = inhibition: at the top concentration
Outline: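 Primary human omental fibroblast/mesothelial 3D culture pre-formed 48 h. SKOV3ip1-GFP cells added with compounds (0.36-46 umol/L), incubated 2 h RT/16 h 37 C, fixed; GFP cells quantified at 488/509 nm.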

Activity change, negative = inhibition, inactive:
COc1ccc(OC)c(CCNC(=O)c2ccc(CS(=O)Cc3cccc(Cl)c3)o2)c1 (stereo not given) -4.65%
CCc1ccc(-n2nc(CO)c(C(=O)NCc3ccccn3)n2)cc1 6.4%
CCc1ccccc1N(CC)C(=O)c1cc2c(s1)-c1ccccc1OC2 -6.11%
CCCCNc1nc(Oc2ccc(=O)n(-c3ccccc3)n2)nc(N(C)C)n1 -0.423%
CC(Sc1oc(-c2ccco2)nc1S(=O)(=O)c1ccc(Br)cc1)c1ccccc1 (stereo not given) -5.78%
CCC(CC)c1nn2c(=O)cc(COc3ccc(NC(=O)c4ccc(Cl)cc4)cc3)nc2s1 13.2%
COc1ccc(-n2ncc(C(=O)N3CCN(c4ccccn4)CC3)c2C2CCN(C(=O)OC(C)(C)C)CC2)cc1 3.4%
Cc1nnc(N2CCN(c3ccccc3F)CC2)c2c1nnn2Cc1ccc(F)cc1 5.73%
CCC(C)NC(=O)c1ccc2c(c1)N(Cc1cccc(Cl)c1)C(=O)c1ccccc1S2=O (stereo not given) 1.34%
COCCNC(=O)c1c(NC(=O)Cc2coc3cc(C)ccc23)sc2c1CCCC2 -3.49%
O=C(CN(c1cccc(Br)c1)S(=O)(=O)c1ccccc1)N1CCc2ccccc2C1 11.5%
COc1ccc(N2CCN(c3nc(-c4ccccc4F)nc4ccccc34)CC2)cc1 -4.14%
CCOC(=O)c1cn(CC(=O)Nc2cccc(Cl)c2C)nn1 7.02%
CN(C(=O)c1nn(C)c2c1COc1ccccc1-2)c1cccc(C(F)(F)F)c1 -7.3%
Cc1nn2c(=O)cc(COC(=O)c3ccccc3NC(=O)c3ccccc3C)nc2s1 -6.29%
COc1cccc(OCc2nc3ccccc3n2CCOc2ccccc2)c1 8.57%
COc1ccc(NC(=O)Cc2coc3cc(C)cc(C)c23)c(OC)c1 1.69%
COc1ccc2c(c1)c1c(c(=O)n(Cc3ccccc3)c(=O)n1Cc1cc(C)ccc1C)n2C -29.6%
Cc1ccc(C)c(OCCSc2nc3ccccc3n2CC(=O)N2CCOCC2)c1 -3.75%
COc1ccc(-c2ccc(NS(=O)(=O)c3ccc(F)c(C(F)(F)F)c3)cc2)nn1 -28.6%
Cc1ccc(CN2CCCn3nc(C(=O)NCCN(C)C)cc3C2=O)cc1 10.3%
COC(=O)c1c(NC(=O)CCCOc2ccc(C)cc2)sc2c1C(C(=O)OC)CC2 (stereo not given) -3.68%
CCOC(=O)c1ccc2c(c1)N(Cc1cccc([N+](=O)[O-])c1)C(=O)c1ccccc1S2 20.4%
O=C(Cn1c(=O)nc(-c2ccccc2)c2cc(Cl)ccc21)NCc1ccccc1 0.972%
Cc1ccc(S(=O)(=O)N2CCCC(c3nc4c(nnn4Cc4ccc(OC(F)(F)F)cc4)c(=O)[nH]3)C2)cc1 (stereo not given) 6.17%
CC(C)C[C@H](NC(=O)[C@H](CCc1ccccc1)NC(=O)CN1CCOCC1)C(=O)N[C@@H](Cc1ccccc1)C(=O)N[C@@H](CC(C)C)C(=O)[C@@]1(C)CO1 -4.68%
CSc1cccc(N2C(=O)N(Cc3ccc([N+](=O)[O-])cc3)c3ccccc3S2(=O)=O)c1 14.1%
O=C1CC(c2nc3ccccc3n2Cc2c(F)cccc2Cl)CN1c1cccc(C(F)(F)F)c1 (stereo not given) -19%
CCOC(=O)N1CCc2c(sc3c2c(=O)n(Cc2ccccc2)c(=O)n3Cc2c(F)cccc2Cl)C1 8.16%
CN(Cc1ccccc1)C(=O)c1cc2c(=O)n(C)c3ccccc3c2s1 -15.8%
COc1ccc(-n2c(C)c([N+](=O)[O-])c3ccc(O)cc32)cc1 -14%
CC(=O)Cn1nnc2sc(-c3ccccc3)cc2c1=O 8.92%
COCCNC(=O)c1cc2n(n1)CCCN(Cc1ccc(C)cc1)C2=O 8.17%
COc1ccc(CC(=O)Nc2c(C(=O)Nc3ccccc3F)oc3ccccc23)cc1 -6.85%
COc1ccc(NC(=O)CC2C(=O)N(c3ccc(C)cc3)C(=O)N2CCc2ccccc2)cc1 (stereo not given) 8.46%
Cc1ccccc1NC(=O)c1sc2nc(-c3ccncc3)ccc2c1N 3.16%
Cc1cc2ccccc2n1-c1ccc(C(=O)N2CCCCC2)s1 -9.92%
COCCCNC(=O)CCCn1c(=O)c2cccn2c2cccnc21 -4.69%
CCCN(CCC)CCCNC(=O)Cn1ncc2c3ccccc3n(Cc3ccc(F)cc3)c2c1=O 0.697%
CCCCOc1cccc(C(=O)Nc2cc3nn(-c4ccc(F)cc4)nc3cc2C)c1 4.04%
CCOC(=O)c1ccc(N2C(=O)c3n[nH]c(-c4cccs4)c3C2c2ccc(C)cc2)cc1 (stereo not given) -0.153%
COc1cc(OC)cc(C(=O)Nc2ccc(S(=O)(=O)Nc3cc(C)nc(C)n3)cc2)c1 -22.6%
CCn1cc(S(=O)(=O)c2ccccc2)c(=O)c2cc(C)ccc21 -1.58%
CC(C)(CC(=O)OCC(=O)Nc1ccc(F)c(Cl)c1)CC1=NS(=O)(=O)c2ccccc2N1 7.77%
CCCCn1c(COc2cccc(OC)c2)nc2ccccc21 0.167%
COc1ccc(CCN2CC(C(=O)NCCc3ccc(C)cc3)CC2=O)cc1OC (stereo not given) 0.634%
COc1ccc(Cl)cc1NC(=O)Cn1cc(C(=O)c2ccncc2)c(=O)c2cc(C)ccc21 6.58%
CC(C)NC(=O)c1ccc(-n2c(-c3ccccc3)cc3c2CCCCC3)cc1 -1.66%
Cc1ccccc1C(=O)Nc1cccc(C(=O)OCc2cc(=O)n3c4c(sc3n2)CCCC4)c1 3.12%
O=C(CSc1nc2ccccc2n1Cc1ccccc1F)NCc1ccccc1 4.78%
Cn1nnc2c(N3CCN(c4ccccc4F)CC3)ncnc21 9.82%
CCOc1ccc(-c2cc(OC(=O)c3ccccc3)c3c(C)oc(C)c3c(=O)c2)cc1 4.53%
CCC(Sc1nc2cc(OC)c(OC)cc2c(=O)n1CCc1ccc(Cl)cc1)C(=O)NCCOC (stereo not given) 4.45%
Cc1cc(C)cc(NC(=O)CCc2c(C)nn(-c3ccc(N4CCCC4)nn3)c2C)c1 0.239%
COc1cc2c(cc1OC)C(COc1ccc(F)cc1)N(C(=O)Cc1ccc(F)cc1)CC2 (stereo not given) -4.42%
Cc1ccc2oc3c(c(=O)c2c1)C(c1ccccc1F)N(CCCN1CCOCC1)C3=O (stereo not given) 9.19%
COc1ccc(N(CC(=O)NCCc2ccccc2)S(=O)(=O)c2ccccc2)c(OC)c1 9.09%
CCCCNC(=O)CSc1nc2cc3c(cc2c(=O)n1CCCCCC(=O)NCc1ccc2c(c1)OCO2)OCO3 15.1%
Cc1ccc(-n2c(SCC(=O)NCc3ccc(F)cc3)nc3c([nH]c4ccccc43)c2=O)cc1 -0.956%
Cc1ccc(CN(C(=O)COc2cccc([N+](=O)[O-])c2)c2ccccn2)cc1 5.1%
CCOC(=O)C1CCN(c2ncnc3c2nnn3C)CC1 -9.89%
Cc1ccc(Nc2c(-c3ccncc3)nc3ccc(C)cn23)cc1 -9.33%
CCCS(=O)(=O)c1ncc(Cl)c(C(=O)Nc2scc(-c3ccccc3)c2C(=O)OCC)n1 3.76%
CC(C)c1ccc(CNc2nc(-c3ccco3)nn2S(=O)(=O)c2ccc3ccccc3c2)cc1 -3.01%
O=S(=O)(c1ccccc1)c1nc(-c2ccc(Cl)cc2Cl)oc1N1CCCCCC1 -12.2%
CCC1CCCCN1CC(=O)N1CCCc2c1c(=O)oc1ccc(OCc3ccccc3)cc21 (stereo not given) -21.6%
COc1ccc(-c2nc(Cn3c(SCc4ccc(C)cc4)nc4cccnc43)c(C)o2)cc1OC -11.2%
COc1cccc2c1cc1c(=O)n(CC(=O)N3CCN(c4cc(Cl)ccc4C)CC3)nc(C)n12 -10.7%
COc1ccc(-c2nnc(SCC(=O)Nc3ccc(Cl)cc3)s2)cc1 -7.36%
CCOC(=O)c1ccc(NC(=O)C2=C(C)Nc3nc(SCc4ccc(Cl)cc4)nn3C2c2ccc(OC)cc2)cc1 (stereo not given) 4.13%
CCOc1ccc(-n2c(C)nc3cc(C(=O)NCCC4=CCCCC4)ccc32)cc1 4.63%
CCCC1OC2C[C@@H]3[C@H]4CCC5=CC(=O)C=C[C@]5(C)[C@H]4C(O)C[C@]3(C)[C@]2(C(=O)CO)O1 (stereo not given in full) 4.74%

outcome, inactive:
Cc1ccccc1CSc1nc2nc(C)c(Cc3ccccc3)c(C)n2n1
COCCNc1nc(NCc2ccccc2OC)c2cnn(C)c2n1
CCOc1ccccc1NC(=O)C(NS(=O)(=O)c1cccc2nsnc12)c1ccccc1 (stereo not given)
COc1ccc(N2CCN(CCCNC(=O)c3cnn(-c4ccc(F)cc4)c3-n3cccc3)CC2)cc1
Cc1nc2ccn(Cc3ccco3)c(=O)c2cc1C(=O)N1CCN(c2ccccc2F)CC1
CCOC(=O)c1c(C)[nH]c(C)c1S(=O)(=O)N1CCC(C(=O)NCc2ccccc2)CC1
CCc1cccc(CC)c1NC(=O)c1cc(S(=O)(=O)N2CCc3ccccc32)cn1C
Cn1nc(-c2ccc(OCC(=O)Nc3ccccc3)cc2)c2ccccc2c1=O
Cc1c(Cl)cccc1Nc1sc(C(=O)c2ccccc2)c(N)c1S(=O)(=O)c1ccccc1
O=C(CC1C(=O)N(c2ccc(F)cc2)C(=O)N1Cc1cccnc1)Nc1ccc(F)cc1 (stereo not given)
Brc1ccc(-c2cc3c(N4CCN(c5ccccc5)CC4)nccn3n2)cc1
COc1cccc(CNC(=O)CCNS(=O)(=O)c2cccc3nsnc23)c1
Cc1nc(C)c(-c2ccc(SCC(=O)Nc3ccccc3F)nn2)s1
CCOC(=O)c1[nH]c2ccccc2c1NC(=O)c1ccc(OC(C)C)cc1
O=C(CSc1nccn1-c1ccc(Cl)cc1)Nc1nc2ccccc2s1
COc1cc(NC(=O)c2cc3c(=O)oc4ccc(C)cc4c3s2)cc(OC)c1OC
Cc1ccc(NC(=O)N(Cc2cn(C)c3ccccc23)C2CCCCC2)cc1C
COc1cc2nc(SCc3cccc(Cl)c3)n3nc(CCn4nc(C)cc4C)nc3c2cc1OC
Cc1cc(C)cc(N2CCn3c2nc2c3c(=O)n(Cc3ccc(Cl)cc3)c(=O)n2C)c1
COc1ccc(CNC(=O)Cn2nnc(-c3ccc(S(C)(=O)=O)cc3)n2)cc1
O=C(CCCn1c(=O)c2cccn2c2cccnc21)NCc1ccc(F)cc1
COc1ccc(C(=O)CC2(O)C(=O)N(Cc3ccccc3Cl)c3ccccc32)cc1 (stereo not given)
COc1ccc(CNC(=O)CCC(=O)N2CCSc3ccccc32)cc1
